System: autoantibodies (anti-histone IgG-autoantibodies) of rheumatic and SLE sera
Assay: ELISA of patient sera on histone peptides (indirect ELISA, sera diluted 1 to 250)
Format: binding, human
Protocol: Dependent on the purpose of the test eltzher the antibody to be tested (in a direct ELISA or sandwich test) or the antigen (in an indirect ELISA) were bound to the surface of the microtitration plate. The antigens were dissolved with a concentration 50 μg/ml in a 0.05 M carbonate buffer, pH 9.7. Antibody solutions, supernatant liquid from cells and urine samples were diluted 1 to 3 in the same buffer and in each case 100 μl were pipetted onto the microtitration plate. Linking took place for 24 hours at 4° C. After emptying the dishes on the following day reactive groups of the microtitration plate were blocked at 36° C. with 250 μl of blocking solution per dish. For this different blocking solutions were employed: 0.5% (w/v) gelatins in PBS/azide; 1% (w/v) BSA in PBS/azide; 5% (w/v) BSA in PBS/azide; 10% (v/v) equine serum in PBS/azide. The additon was then made of 100 μl of cell culture supernatant liquid (primary antibodies) or, respectively, the 1 to 250 diluted sera with incubation for one hour at room temperature in the dark. […]
The results were evaluated as follows: an ELISA on a patient was only rated as positive if both extinctions>0.2 (cut off=0.2 from dummy measurements and correction factor in the case of stray values>0.2) and distinctly higher than the values in comparison with all other peptides.

## KPKAAKPKAAKPKAAKPKKAAPKKK (KPKAAKPKAAKPKAAKPKKAAPKKK) [H1-CT]
122 SLE sera tested in ELISA
  epitope status for SLE autoantibodies: preferred epitopes of SLE autoantibodies
SLE sera (80 lupus patients), positive only if both extinctions >0.2 for H1 C terminus and H2B N terminus, sera 1 to 250
  SLE sera / lupus patients reacting positively in ELISA: 80%
